Over roughly 110,000 compounds, “z-score” has its median near -0.1; the highest 2% begin near 2. The list shows a part of the results.
Molecular target: Metabotropic glutamate receptor 8 (Rattus norvegicus) (UniProt P70579)
Experiment: mGluR8 Gi/Go-coupled signaling modulation – cell-based, rat, thallium flux, HTS, primary screen (AID 488969)
Conditions: HEK293 rat mGluR8, GIRK (G protein-gated inwardly rectifying potassium channel) thallium flux, FluoZin2; at 10 µM; stronger effect = higher value; submaximal glutamate (EC20) added with thallium

Sequence of UniProt P70579 (P70579 whole entry, looked up): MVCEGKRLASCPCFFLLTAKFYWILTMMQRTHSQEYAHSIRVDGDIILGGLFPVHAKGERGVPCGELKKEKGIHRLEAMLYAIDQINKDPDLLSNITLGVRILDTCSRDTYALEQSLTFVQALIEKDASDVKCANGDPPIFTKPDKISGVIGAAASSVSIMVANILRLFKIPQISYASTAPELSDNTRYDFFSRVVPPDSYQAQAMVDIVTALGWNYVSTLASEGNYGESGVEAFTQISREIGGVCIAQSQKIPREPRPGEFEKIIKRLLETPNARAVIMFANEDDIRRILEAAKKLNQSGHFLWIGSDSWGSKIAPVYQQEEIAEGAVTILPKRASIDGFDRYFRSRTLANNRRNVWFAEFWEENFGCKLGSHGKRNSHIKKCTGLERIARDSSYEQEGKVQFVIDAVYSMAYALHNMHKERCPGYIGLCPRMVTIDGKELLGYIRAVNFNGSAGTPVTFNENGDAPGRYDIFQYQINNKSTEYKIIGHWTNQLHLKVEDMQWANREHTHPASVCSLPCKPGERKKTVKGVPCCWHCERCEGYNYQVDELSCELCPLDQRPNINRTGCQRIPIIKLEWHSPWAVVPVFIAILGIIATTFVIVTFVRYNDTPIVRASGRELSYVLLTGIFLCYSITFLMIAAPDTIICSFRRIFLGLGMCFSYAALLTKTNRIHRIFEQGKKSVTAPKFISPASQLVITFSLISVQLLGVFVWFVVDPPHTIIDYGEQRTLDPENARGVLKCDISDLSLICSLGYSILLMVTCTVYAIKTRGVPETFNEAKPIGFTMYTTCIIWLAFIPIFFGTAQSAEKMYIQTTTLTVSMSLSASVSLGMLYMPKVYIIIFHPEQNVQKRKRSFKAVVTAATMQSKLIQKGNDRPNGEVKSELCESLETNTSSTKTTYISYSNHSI

For `O=C(OCn1nnc2ccccc2c1=O)c1ccc(S(=O)(=O)N2CCOCC2)cc1`, which z-score is on record?
Its z-score is -0.396.

Which z-score does the source give for `COC(=O)C1=C(C)Nc2c(c(=O)n(C)c(=O)n2C)C1c1cccnc1` (stereo not drawn) here?
The z-score was -1.75.

Which z-score does the source give for `Cc1[nH]nc2c1C(c1ccccn1)N(c1ccc(Br)cc1)C2=O` (stereo not drawn) here?
Its z-score is 0.293.

Which z-score does the source give for `CCOc1ccc(-c2nc(-c3ccc(OC)cc3)no2)cc1OCC` here?
Its z-score is 2.87.

With `CCc1ccc(CNC(=O)C2CCCN(c3nc4ccccc4o3)C2)cc1` (stereo not drawn) as the compound, how does the z-score read?
The z-score was -0.258.

`COc1ccc(-c2cc(C(=O)Nc3nc4ccccc4s3)c3ccccc3n2)cc1OC` was tested. Which z-score did it give?
The z-score was -0.0904.

`COc1ccccc1NS(=O)(=O)c1cc(NC(=O)CNC(=O)c2cc(C)cc(C)c2)ccc1C` was tested. Which z-score did it give?
Its z-score is -0.0673.

Which z-score does the source give for `CC(=O)c1cc2c(cc1N/C(=N/S(=O)(=O)c1ccc(C)cc1)c1ccccc1)OCO2` here?
The z-score was -0.143.

With `C=C(C)Cn1c(SCC(=O)O)nc2c1c(=O)[nH]c(=O)n2C` as the compound, how does the z-score read?
Its z-score is -0.35.

`CCOc1ccc(/C(O)=C2\C(=O)C(=O)N(CCN(C)C)C2c2cccc(OC)c2OC)cc1Cl` (stereo not drawn) was tested. Which z-score did it give?
Its z-score is -0.303.

How did the z-score turn out when `c1cn(CCCNc2ncnc3nc[nH]c23)cn1` was run?
The z-score was -0.153.

How did the z-score turn out when `CCN1CCN(C(=S)c2ccc(Cl)c(Cl)c2)CC1` was run?
The z-score was -0.0912.

With `CC(OC(=O)c1ccc2c(=O)n3c(nc2c1)CCCCC3)C(=O)Nc1ccc(F)cc1Cl` (stereo not drawn) as the compound, how does the z-score read?
The z-score was -0.267.

For `CCOC(=O)c1ccc(N/C=C/C(=O)c2ccc(OC)c(OC)c2)cc1`, which z-score is on record?
Its z-score is -0.0592.

With `O=C(CSc1nc2ccccc2n1CCc1ccccc1)N1CCOCC1` as the compound, how does the z-score read?
The z-score was 2.47.

`CC1(C(=O)Nc2nnc(SCc3ccccc3)s2)Cc2ccccc2C(=O)O1` (stereo not drawn) was tested. Which z-score did it give?
Its z-score is 0.224.

For `O=C(Nc1ccc(Br)cc1F)C1CCN(c2nnc(-n3cccc3)s2)CC1`, which z-score is on record?
Its z-score is -0.247.

`Cc1ccc2c(c1)cc(CN(Cc1ccco1)C(=O)COc1ccccc1)c1nnnn12` was tested. Which z-score did it give?
Its z-score is -0.261.

How did the z-score turn out when `CCOC(=O)N1CCN(S(=O)(=O)c2cc(C)c(C)cc2C)CC1` was run?
Its z-score is 0.457.

For `COc1cc(C2C(C#N)=C(N)N(c3cccnc3)C3=C2C(=O)CCC3)ccc1O` (stereo not drawn), which z-score is on record?
Its z-score is -0.192.

For `CCN1CCN(c2cc(N3CCc4ccccc4C3)c(F)cc2[N+](=O)[O-])CC1`, which z-score is on record?
The z-score was -0.033.

Which z-score does the source give for `O=C(CCC(=O)c1cccs1)NCc1ccccc1` here?
The z-score was -0.0705.

Which z-score does the source give for `CC(C)c1cc(C(=O)N/N=C/c2cccnc2)n[nH]1` here?
The z-score was -0.116.

For `Cc1cccc(C)c1NS(=O)(=O)c1ccc(NC(=O)c2ccc(Cl)c([N+](=O)[O-])c2)cc1`, which z-score is on record?
Its z-score is 0.000906.

For `COc1ccccc1NS(=O)(=O)c1cccc(C(=O)N/N=C(\C)c2ccc(-n3ccnc3)cc2)c1`, which z-score is on record?
The z-score was -0.46.

Which z-score does the source give for `COc1ccc(CNCCNC(=O)c2nonc2N)cc1OC` here?
The z-score was 0.172.

For `O=C(CSc1nc(-c2ccco2)cc(C(F)(F)F)n1)NC1CCCCCCC1`, which z-score is on record?
Its z-score is -0.6.

How did the z-score turn out when `COc1cccc(C(CC(=O)Nc2cccc3ccccc23)NC(=O)c2ccccc2)c1` (stereo not drawn) was run?
Its z-score is 2.17.

Source: PubChem BioAssay AID488969 (Vanderbilt High Throughput Screening Facility, 2010)
